Assay results reported in the supplement of paper PMC3334620.
In all, about 33,000 sequences were measured (“E-score (-0.5 to 0.5)”: median about -0.016, highest 2% from about 0.31 on). This is one part of the list.

These sequences were tested against Cst6 (UniProt P40535) (assay: PBM E-score (8-mer binding enrichment) (E-score (-0.5 to 0.5)); higher = stronger / more preferred TF binding; most listed sequences are background and not binding sites). Settings: protein concentration: 200 nM; construct: GST-DNA-binding domain.
Procedure, shortened: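 Bound GST-tagged yeast transcription factors, applied at about 100-200 nM to double-stranded universal all-10-mer Agilent arrays, were detected with fluorescent anti-GST. Scans were normalised with masliner. A modified Wilcoxon-Mann-Whitney statistic, the E-score, was assigned to each ungapped eight-base word pooled with its reverse complement by the Universal PBM Analysis Suite.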

In order of falling “PBM E-score” value:
1. TGACGCAA  0.489
2. AATATAAG  0.352
3. CATAAACA  0.301
4. CGTGCGTC  0.289
5. AAATAATT  0.272
6. GACGCCGC  0.271
7. AGGTAAAC  0.244
8. AACGGCTC  0.244
9. TAATGTGA  0.239
10. ATGCGCAT  0.236
11. AATATTCC  0.236
12. ACGAATCA  0.23
13. ACGCGTGA  0.23
14. ACGAATAT  0.204
15. AACATCGA  0.2
16. TAACGGCA  0.197
17. CGTTTAGC  0.189
18. AGTAAAAA  0.186
19. ATCACAAA  0.185
20. CGTTTGAA  0.183
21. CTTAATTC  0.173
22. GTACGACA  0.173
23. CAACAAAG  0.165
24. ATGTTTAA  0.164
25. AATATGCT  0.163
26. CCGAATGA  0.161
27. ATACTGTC  0.161
28. ACGATAGC  0.16
29. GGTTATTA  0.158
30. TTCGAGAA  0.154
31. CGCGTGAG  0.15
32. AACTGCAT  0.148
33. CGGCGCAC  0.141
34. CGCCTTAG  0.132
35. AACCTGAT  0.13
36. AAAGATGT  0.13
37. CCGCAATA  0.128
38. ACACTCAC  0.128
39. TATAAGCA  0.124
40. GCATCAAA  0.12
41. ATAACCGC  0.118
42. ATTTTGCG  0.117
43. ACTTTAGA  0.115
44. AAACTACT  0.113
45. ATATCGCG  0.111
46. GGTAACTA  0.108
47. AGGCGCGC  0.103
48. CTAGGTTA  0.103
49. CTCAGAAC  0.102
50. GATTCAAC  0.102
51. CAAGGCAC  0.0967
52. AGATATTG  0.0964
53. AATACTGT  0.094
54. AGTGTATA  0.0918
55. CAGAAACC  0.091
56. GATACGAA  0.0906
57. ATAGACTA  0.0904
58. ATCAGGAT  0.0871
59. AACGTACA  0.0856
60. ATCAGGCG  0.0843
61. ATGACCAC  0.0841
62. CAGCCAAA  0.0814
63. CACAGCCG  0.0811
64. GTGGAAAC  0.0801
65. AATGCACA  0.0752
66. CGACAGAA  0.0668
67. CATTCACC  0.0654
68. AAACACCG  0.0634
69. AGAGAACG  0.063
70. CGTGTTAA  0.0629
71. AAGTGGTG  0.0596
72. AAATTGAG  0.0582
73. ATATAGCG  0.056
74. GCTTTCAA  0.0524
75. CTTCAAAG  0.0508
76. AATTCCGC  0.0507
77. CATCTACA  0.0501
78. CATCGGAA  0.0499
79. ATACGTTC  0.0426
80. AGCTAATA  0.0414
81. GTACCTGA  0.0404
82. AGAAGTCA  0.0402
83. CGTTGATC  0.0387
84. CGTGCCAC  0.0375
85. AACGCCCA  0.0351
86. GCTAGTAA  0.0344
87. CGGCTACG  0.0292
88. AATGAACC  0.0281
89. AAGGGTTA  0.0261
90. GGCACACA  0.0237
91. CAATCTAA  0.0224
92. CGTTCGGA  0.0188
93. CGATGAGC  0.0185
94. AGTAGGGA  0.017
95. CTATGAAG  0.0163
96. AGCTGTCA  0.0154
97. GGCGGCTA  0.0119
98. CCGTCGAG  0.0117
99. ACAGTACG  0.00835
100. ATCACCCA  -0.00057
101. CCACGTGC  -0.00071
102. CCGTGGCA  -0.00454
103. GGCAGTCA  -0.0057
104. CAACGTGC  -0.00697
105. AAGCAAGT  -0.00879
106. CACCGGCG  -0.0103
107. CACCTTGA  -0.0111
108. GAATCCAC  -0.0122
109. GTGCGGAA  -0.0138
110. CCGTTTGC  -0.015
111. AGCGACGC  -0.0225
112. AATAGTAC  -0.0231
113. CCGTAAGC  -0.0303
114. CAAATCGA  -0.0314
115. ACTCATGC  -0.0314
116. GGCAGAGA  -0.0315
117. GCGGCTCC  -0.0319
118. ACAAATCC  -0.0329
119. CCGTTAAA  -0.0355
120. GCTTATCC  -0.0378
121. AACACGGG  -0.0396
122. AGGGACAC  -0.0404
123. AGATCCTA  -0.0413
124. AACGGAGA  -0.0425
125. ACTCTTAA  -0.0462
126. AGCGAGCT  -0.0469
127. AAAAGCAT  -0.0477
128. CACAGGCA  -0.049
129. CGTACGAG  -0.053
130. CATATCCG  -0.0541
131. CTGTCAGC  -0.0542
132. GGATCACC  -0.0554
133. CCCACTAC  -0.0591
134. GGGGTAAC  -0.0602
135. CGGTTCAA  -0.061
136. GAGTCTAA  -0.0629
137. ATTGCTAG  -0.0643
138. GGGTCATA  -0.0664
139. ACTCTATC  -0.0672
140. AGACGCAC  -0.0677
141. ACTTCACG  -0.0693
142. CGTGCAAG  -0.0707
143. AGTCCTTA  -0.0772
144. ACCCACGC  -0.0795
145. GCTCTGTA  -0.0831
146. GACAGCGA  -0.0876
147. AGCCTCAC  -0.089
148. AACTCCTA  -0.0898
149. GAGTACAC  -0.0901
150. CGACGTAG  -0.095
151. CACAGATA  -0.0958
152. ACTACTGG  -0.0966
153. CATCCGAG  -0.0981
154. ATCGAGGG  -0.0983
155. GTAGTTCA  -0.0987
156. AAGCACTG  -0.1
157. AAGGTGGC  -0.102
158. ACCTATTG  -0.102
159. ATGGAGCC  -0.103
160. AAGACTAC  -0.103
161. ACGCATTC  -0.109
162. CGGCCGGC  -0.109
163. CAGTCTGC  -0.112
164. CGCTTTCC  -0.112
165. CAATCCTC  -0.114
166. CAGGAAAG  -0.116
167. CCAGCTTA  -0.119
168. ATTAGCGG  -0.122
169. AGCTCTAT  -0.123
170. AGGTTCAC  -0.124
171. GCGTGAAC  -0.126
172. ACAAAGGG  -0.131
173. GAGGAGCC  -0.135
174. ACTCCAGG  -0.136
175. AGCGTGGA  -0.138
176. ACCCGGCA  -0.143
177. CACAGGGA  -0.144
178. AGCACCCG  -0.145
179. ACAGGCTC  -0.149
180. GGTGCTTA  -0.154
181. GAGTTCGC  -0.16
182. CAAGGCTG  -0.162
183. AGAAGTTG  -0.163
184. ACAGGTCT  -0.17
185. CTACGCTC  -0.173
186. ATCGGGCG  -0.178
187. ATCTCCTC  -0.181
188. AACCTGCG  -0.183
189. GGACCATA  -0.19
190. CGCTTAGC  -0.192
191. CCACGTGG  -0.194
192. CAGTCCAC  -0.198
193. CCGAGTCG  -0.203
194. GCCAGGGA  -0.205
195. CTCCACTC  -0.208
196. CCAGGTAG  -0.213
197. ACTGTGGC  -0.214
198. ACCACCGT  -0.235
199. GCGCCCCC  -0.243
200. CTGTGGAC  -0.263
201. AACCCTTG  -0.266
202. GGAATCCC  -0.276
203. CCCCGGGC  -0.277
204. CGGCCATC  -0.287
205. CCTAAAAG  -0.287
206. CCTCGCCA  -0.296
207. GGAGCTCA  -0.299
208. CCTAGCCC  -0.306
209. AGCACCAT  -0.31
210. CTCCGTCC  -0.313
211. CTCCTGCA  -0.315
212. GACTGGCC  -0.319
213. GTGGTCGA  -0.319
214. ATCCAAGC  -0.32
215. ACGGGGGG  -0.332
216. GGGGCTTA  -0.346
217. GACCGGTA  -0.361
218. GAGGACTC  -0.37
219. AGTGGGGG  -0.433
